Measured values: PubChem BioAssay (NCI)
Several values for one entry are separate records, joined by “and”; a condition that tells them apart may be missing. Identical values can stand only once.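 Growth conditions: 96-well plates. Treatment: test compound, 48 hours, 5 concentrations. Analysis: linear interpolation between bracketing concentrations; unreached endpoints set to highest concentration. GI50: concentration for 50% inhibition of growth. At the TGI there is no net growth.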

Tested on: NCI-H322M lung
Assay: growth of human tumour cells (NCI), 48 h

SMILES: NCc1ccc(-c2nc(-c3ccc(Cl)c(O)c3)c(-c3ccncc3)[nH]2)cc1
- GI50: > 25 µM
- TGI: > 25 µM

SMILES: Cc1c(C2=NN=C(N=Nc3c(O)cccc3O)/C2=C/c2ccccc2)c(=O)n(-c2ccccc2)n1C
- TGI: > 100 µM

SMILES: COc1cc2c(cc1NC(=O)C(Cl)Cl)-c1ccc(NC(=O)C(Cl)Cl)cc1C2
- GI50: 0.595 µM
- TGI: 1.92 µM

SMILES: Cc1nnc(N/N=C(/C(=O)C(C#N)c2ccc(Cl)cc2)C(C#N)c2ccc(Cl)cc2)n1N (stereo unspecified)
- TGI: 30.3 µM

SMILES: NC(=O)c1sc2nc3ccccc3n2c1N
- TGI: > 100 µM

SMILES: CNC(=O)N1N[C@H](c2ccccc2)[C@@H]1c1ccccc1
- TGI: > 100 µM

SMILES: COc1cc(C(=O)C2CC3(CCC2(O)c2cc(OC)c(OC)c(OC)c2)CC(=O)Nc2ccccc2C3=O)cc(OC)c1OC (stereo unspecified)
- TGI: > 100 µM

SMILES: O=C(NCCCCCCCN1CCCCCCC1)C(C1CCCCC1)C1CCCCC1
- TGI: 27.1 µM

SMILES: CC1SC(c2ccc(Cl)cc2)N(CCc2cccs2)C1=O (stereo unspecified)
- GI50: 2.21 µM
- TGI: 7.03 µM

SMILES: Cc1ccc(S(=O)(=O)N2CC(CCN)c3ccccc32)cc1 (stereo unspecified)
- TGI: 22.5 µM

SMILES: C=CCNC(=O)CN(CC(=O)O)C1CCCCC1N(CC(=O)O)CC(=O)O (stereo unspecified)
- TGI: > 100 µM

SMILES: COCCOCCOCCOCCOC(=O)OC[n+]1ccc(NC(=NCCCCCCOc2ccc(Cl)cc2)NC#N)cc1
- GI50: 12.8 µM
- TGI: 25.6 µM

SMILES: Nc1nc(-c2ccc(Cl)cc2)nc2c1sc(=S)n2-c1ccccc1
- GI50: 4.47 µM
- TGI: 23.7 µM

SMILES: CN1CCCC1c1cccnc1.O=C(O)c1ccccc1O.O=C([O-])c1ccccc1[OH2+].O=C([O-])c1ccccc1[OH2+].[Mn+2] (stereo unspecified)
- GI50: > 100 µM
- TGI: > 100 µM

SMILES: c1ccc(COC2C3COC(O3)C(OCc3ccccc3)C2OCc2ccccc2)cc1 (stereo unspecified)
- TGI: > 100 µM

SMILES: O=C(CC(=O)c1ccccc1)C(=O)Nc1ccc(Cl)cc1
- TGI: > 100 µM

SMILES: CSC1=Nc2c(c(C)c(-c3ccccc3)n2COC(CO)CO)C2=NC(=O)CN12
- GI50: > 100 µM
- TGI: > 100 µM

SMILES: CCCCN(C)C(=O)C1=C(C)NC(C)=C(C(=O)N(C)CCCC)C1
- TGI: > 100 µM

SMILES: C/C(=N\NC(=S)Nc1ccc([N+](=O)[O-])cc1)c1nc2ncccc2[nH]1
- TGI: > 100 µM

SMILES: COC1=C(OC)C(=O)C(CCCCCCCCCCO)=C(C)C1=O
- GI50: 17.3 µM
- TGI: 32.4 µM

SMILES: CC1(C)[C@H](O)[C@H](F)C[C@@]2(C)Oc3ccc(C(=O)Nc4ccc5c(c4)NC(=O)C54CCN(CCCCC#N)CC4)cc3C[C@H]12
- GI50: 7.59 µM and 10.4 µM
- TGI: 25.1 µM

SMILES: C=C[C@]1(O[Si](C)(C)C)C[C@@]2(C(=O)OCC)C(O)C(=O)N3CCc4cc(OC)c(OC)cc4[C@]312 (stereo partly specified)
- TGI: > 100 µM

SMILES: CC1CCN(CCOc2ccc(CNc3ccc4nc(CCC5CCCCC5)[nH]c4c3)cc2)CC1
- GI50: 1.94 µM
- TGI: 4.37 µM

SMILES: O=c1cc(CNC2CC3CCC2C3)[nH]c(=O)[nH]1 (stereo unspecified)
- TGI: > 100 µM

SMILES: OC1COC(OCc2ccccc2)C(O)C1O (stereo unspecified)
- TGI: > 100 µM

SMILES: CCOP(=O)(OCC)C(Cc1ccc(Cl)cc1)NS(=O)(=O)c1ccc(C)cc1 (stereo unspecified)
- TGI: > 100 µM

SMILES: S=C(NCc1ccc2c(c1)OCO2)N1CCN(c2ncnc3c2oc2ccccc23)CC1
- GI50: > 100 µM
- TGI: > 100 µM

SMILES: CSC(=N)N1N=C2/C(=C/c3ccccc3)CCC[C@H]2[C@H]1c1ccccc1
- TGI: 13.5 µM

SMILES: CN1C(=NCCO)NS(=O)(=O)c2ccccc21
- TGI: > 100 µM

SMILES: COc1ccc(-c2c3c(N)c4c(nc3nc3c2c(C)nn3-c2ccccc2)CCCC4)cc1
- GI50: 2.92 µM
- TGI: 10.5 µM

SMILES: CC(N)CC(=O)O (stereo unspecified)
- TGI: > 5000 µM

SMILES: CSc1ccc2c(cc1=O)C(NC(=O)c1ccc(C#N)cc1)CCc1cc(O)c(O)c(O)c1-2 (stereo unspecified)
- TGI: > 100 µM

SMILES: COC1=C(OC)[C@]2(OC)c3c(O)c(OC)c4c(c3O[C@@]23O[C@@H](c2ccccc2)CC=C3C1=O)[C@@H](OC)C[C@H](c1ccccc1)O4
- GI50: 1.81 µM
- TGI: 3.4 µM

SMILES: C/C(=N\NC(=O)C(N)=O)c1c(O)cc(C)oc1=O
- TGI: > 100 µM

SMILES: CC(C)(C)c1cc(C(=O)O)c2c(c1)C(=O)OC2(c1ccccc1)c1ccccc1C(=O)O (stereo unspecified)
- TGI: > 100 µM

SMILES: O=c1ccn(/C=C/C(O)C(O)CO)c(=O)[nH]1 (stereo unspecified)
- TGI: > 100 µM

SMILES: Cc1ccc(S(=O)(=O)N2CCN(S(=O)(=O)c3ccc(C)cc3)CCN(S(=O)(=O)c3ccc(C)cc3)Cc3cc(Br)c(Br)cc3CN(S(=O)(=O)c3ccc(C)cc3)CC2)cc1
- TGI: > 100 µM

SMILES: c1ccc(CN2COc3c(ccc4c5c(ccc34)CN(Cc3ccccc3)CO5)C2)cc1
- TGI: > 100 µM

SMILES: C=C1C=CC2(Br)OC3CC(C)(Cl)C(Br)CC13C2(C)C (stereo unspecified)
- TGI: 96.8 µM

SMILES: C=C(C)CCC1CC=[N+]([O-])OC1C(C)(C)C (stereo unspecified)
- TGI: > 100 µM

SMILES: COC1=C2CC(C)CC(OC)C(OC(=O)CCCN)C(C)/C=C(\C)C(OC(N)=O)C(OC)/C=C\C=C(/C)C(=O)NC(=CC1=O)C2=O (stereo unspecified)
- TGI: 47.6 µM

SMILES: CCOC(=O)C(Cc1ccc(N(CCCl)CCCl)cc1)NC(=O)C(Cc1ccccc1)NC(C)=O (stereo unspecified)
- TGI: > 0.573 µM

SMILES: COc1ccc(S(=O)(=O)N2CCNCC2)cc1OC
- GI50: > 100 µM
- TGI: > 100 µM

SMILES: C[C@H]1C(=O)c2c(cc(O)c(C3OC(CO)C(O)C(O)C3O)c2O)OC1c1ccc(O)c(O)c1 (stereo partly specified)
- TGI: > 100 µM

SMILES: O=C(/C=C(\Nc1ccccc1O)c1ccc(Br)cc1)C(Cl)(Cl)Cl
- TGI: 7.09 µM

SMILES: C[C@H]1CN(C2COC2)CCN1c1ccc(Nc2cc(-c3ccnc(N4CCn5c(cc6c5CC(C)(C)C6)C4=O)c3CO)cn(C)c2=O)nc1
- GI50: 41.7 µM
- TGI: > 100 µM

SMILES: Nc1nc2ccccc2c2c1S(=O)(=O)c1ccc(Cl)cc1C2=O
- GI50: 3.41 µM
- TGI: > 50 µM

SMILES: CC(=O)OCC(CC[CH2][Sn]([Cl])([Cl])[c]1ccccc1)OC(C)=O (stereo unspecified)
- GI50: 15.5 µM
- TGI: 35.8 µM

SMILES: CC(C)CCC[C@@H](C)[C@H]1CC[C@H]2C3=C[C@H](OS(=O)(=O)O)[C@@]4(O)C[C@@H](O)CC[C@]4(C)[C@@]3(O)CC[C@]12C
- TGI: > 100 µM
